Among all 340,000 compounds or so, about 12,000 (3.5%) were called active. Inconclusive results, whose numbers are uncertain, are shown with a selection of clear calls. Calls come from the whole dose curve; as a rule, active = well fitted inhibition curve with a large enough effect; inconclusive = small, poorly fitted or top-dose-only effect, or another doubt; inactive = no such curve, though single readings can be large or run the other way. Potencies of inconclusive entries are left out as doubtful fits.
Experiment: qHTS Assay for Inhibitors of Hepatitis C Virus (HCV)
Conditions: Huh7.5.1 HCVcc-Cre (HCVcc is cell-culture hepatitis C virus) infection, luciferase reporter, 44 h; activity change, negative = inhibition: at 41.8 µM (top of the series) unless noted
Procedure, shortened: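 Cells seeded at 1,000/well and cultured 4 h, then compounds added followed by HCVcc-Cre virus (~0.5 moi). After 44 h further culture, luciferase substrate was added, plates held 15 min at room temperature, and luminescence read for 15 sec.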
With `Cc1nn(-c2ccccc2)c(N2CCCC2)c1/C=N/NC(=O)C1CC1` the Potency was inconclusive [inhibitor, partial curve, poor fit].
In the case of `Cc1ccc(C23CC4CC(CC(C(=O)N5CCN(C)CC5)(C4)C2)C3)cc1`, the Potency is reported as active: 2.51 µM.
For `N#CCC(=O)Nc1ccc(C(=O)OCC(=O)Nc2cccc(C(F)(F)F)c2)cc1`, the Potency was “inactive”.
In the case of `COc1ccc(NC(=O)COC(=O)c2c3c(nc4ccccc24)CCCC3)cc1Cl`, the Potency is reported as active: 4.47 µM.
For `COC(=O)C1CCN(C(c2cccs2)c2sc3nc(C)nn3c2O)CC1` (stereo unspecified), the Potency was “inactive”.
For `COc1cc2c(cc1OC)CN(C(=O)/C=C/c1cc(OC)c(OC)c(OC)c1)CC2`, the Potency was inconclusive [inhibitor, full curve, poor fit].
For `CNC(=O)c1ccc(S(=O)(=O)c2ccc(Cl)cc2)c(NC(C)=O)c1`, the Potency was “inactive”.
In the case of `O=C(O)C(Oc1ccc2ccccc2c1)c1ccccc1` (stereo unspecified), the Potency is reported as “inactive”.
With `Cc1cc(NC(=O)c2ccc3c(c2)OCO3)ccc1NC(=O)c1ccccc1` the Potency was inconclusive [inhibitor, partial curve].
In the case of `C/C(=C\C(=O)c1ccccc1)Nc1cccc(O)c1`, the Potency is reported as inconclusive [inhibitor, partial curve].
With `Cc1c(C(=O)C(=O)N2c3ccc(F)cc3CCC2C)c2ccccc2n1C` (stereo unspecified) the Potency was inconclusive [inhibitor, full curve, poor fit].
In the case of `N#CCCN(C1CCCCC1)S(=O)(=O)CCOc1ccccc1`, the Potency is reported as inconclusive [inhibitor, single point].
In the case of `CC(C)C(=O)Nc1nnc(CSCc2ccccc2F)s1`, the Potency is reported as “inactive”.
With `Cc1cc(N/N=C/c2ccncc2)nc2ccccc12` the Potency was inconclusive [inhibitor, single point].
In the case of `CC(=O)c1cccc(NC(=S)N2CCN(c3ccccn3)CC2)c1`, the Potency is reported as inconclusive [inhibitor, single point].
For `CC(=O)Nc1ccc(S(=O)(=O)N2CCC(=O)Nc3ccccc32)cc1`, the Potency was inconclusive [inhibitor, single point].
In the case of `CCOc1ccccc1CNC(=O)c1ccc2nc(N3CCOCC3)sc2c1`, the Potency is reported as inconclusive [inhibitor, single point].
For `O=C(NCCCc1ccccc1)c1ccc(Br)o1`, the Potency was “inactive”.
For `COc1ccccc1NC(=O)COc1ccc(C(=O)NC2CCCc3ccccc32)cc1OC` (stereo unspecified), the Potency was inconclusive [inhibitor, partial curve, poor fit].
For `CCCCC(=O)Nc1ccc(F)c(Cl)c1`, the Potency was inconclusive [inhibitor, partial curve].
With `Cc1cccc(-c2nc(CNC(=O)c3ccco3)cs2)c1` the Potency was inconclusive [inhibitor, single point].
For `O=C1NN(c2ccc(F)cc2)C(=O)/C1=C\C=C\c1ccco1`, the Potency was “inactive”.
In the case of `COc1ccccc1NC(=S)NCC1CCCCC1`, the Potency is reported as inconclusive [inhibitor, partial curve, poor fit].
With `O=C(NCc1cccnc1)C1CCC(c2ccc(Cl)cc2)CC1` (stereo unspecified) the Potency was active: 7.94 µM.
For `COc1ccc(C(=O)NNC(=O)C2CCCO2)cc1` (stereo unspecified), the Potency was “inactive”.
For `O=C(Nc1ccc2c(c1)CCCN2C(=O)c1cccs1)c1ccccc1`, the Potency was active: 31.6 µM.
For `O=C(NCc1ccc(F)cc1)C1CCCN(S(=O)(=O)c2cccc3nsnc23)C1` (stereo unspecified), the Potency was inconclusive [inhibitor, partial curve].
For `CCN1CCN(Cc2ccc(NC(=O)c3ccc(C)c(NC(=O)c4cc(-c5ccc(Br)cc5)n[nH]4)c3)cc2C(F)(F)F)CC1`, the Potency was inconclusive [inhibitor, partial curve, poor fit].
In the case of `Cc1c(/C=N/NC(=O)CNc2ccccc2)c2ccccn2c1C(=O)c1ccc(Cl)cc1`, the Potency is reported as “inactive”.
With `O=C(NCc1cccnc1)c1nc(-c2ccc(C(F)(F)F)cc2)no1` the Potency was inconclusive [inhibitor, partial curve].
With `CSc1ccccc1C(=O)NC1CCCN(c2ccc(C(F)(F)F)cn2)C1` (stereo unspecified) the Potency was inconclusive [inhibitor, single point].
With `O=C(c1cccc2ccccc12)C1CCCN(C2CCC2)C1` (stereo unspecified) the Potency was inconclusive [inhibitor, partial curve].
With `COc1ccc(-c2nc(NC(=O)c3[nH]c(C)c(C(C)=O)c3C)sc2C)cc1` the Potency was active: 1 µM.
In the case of `CCCNC(=O)c1ccc(CNc2c(N3CCC(C(=O)OCC)CC3)c(=O)c2=O)cc1`, the Potency is reported as inconclusive [inhibitor, partial curve].
For `CCOC(=O)c1c(S(=O)(=O)N2CCCC(C(=O)Nc3ccc(C)cn3)C2)c(C)n(C)c1C` (stereo unspecified), the Potency was “inactive”.
In the case of `O=C(c1ccc(Cl)cc1)c1c[nH]c(C(=O)NNc2ccccc2)c1`, the Potency is reported as inconclusive [inhibitor, single point].
In the case of `CCC(c1nnnn1Cc1cccs1)N1CCN(c2nc3ccccc3s2)CC1` (stereo unspecified), the Potency is reported as inconclusive [inhibitor, single point].
In the case of `COCCNC(=O)c1cccc(NC(=O)C2=C(C)OCCS2)c1`, the Potency is reported as “inactive”.
For `COc1ccc(-c2cc(C3CC3)nc3sc(C#N)c(N)c23)cc1`, the Potency was inconclusive [inhibitor, single point].
With `CCCOc1nc(N)c(C#N)c(-c2ccccc2F)c1C#N` the Potency was active: 35.5 µM.
For `O=C(OCc1ccccc1)N1C=CC2CC1c1c(Cl)cccc12` (stereo unspecified), the activity change, negative = inhibition was inactive: 8.9% [at 8.37 µM].
For `Cc1nnc(SCC(=O)Nc2c(C)n(C)n(-c3ccccc3)c2=O)n1Cc1ccccc1`, the Potency was “inactive”.
In the case of `O=[N+]([O-])c1c(NCCCO)cc(SCc2ccco2)c2nonc12`, the Potency is reported as inconclusive [inhibitor, single point].
In the case of `COc1cccc(N2CCN(C(=O)c3ccc(CS(=O)Cc4ccccc4Cl)o3)CC2)c1` (stereo unspecified), the Potency is reported as inconclusive [inhibitor, single point].
For `O=C(O)CCC(=O)Nc1sc2c(c1C(=O)Nc1ccccc1)CCCCC2`, the Potency was “inactive”.
In the case of `CCC(NC(=O)c1cccc(Cn2cc([N+](=O)[O-])cn2)c1)c1ccc(C(C)C)cc1` (stereo unspecified), the Potency is reported as inconclusive [inhibitor, partial curve].
% is set by controls: 0 for no effect and ±100 for the full control effect; potency is the fitted concentration of half-maximal effect; tags give direction and shape of the fitted curve.
